Measurements from PubChem BioAssay AID1963576 (National Center for Advancing Translational Sciences (NCATS), 2024).
Out of some 46,000 compounds screened, about 60 (0.1%) were called active. Not shown: some 3% with an inconclusive outcome. Calls follow the shape of the dose curve; as a rule, active = well fitted inhibition curve with a large enough effect; inconclusive = small, poorly fitted or top-dose-only effect; inactive = no such curve, though single readings can be large or run the other way. This is one part of the list.

assay: Primary qHTS assay for Inhibitors of ovarian cancer metastasis using an organotypic tumor microenvironment (TME) model.; also: nearly all actives have a fitted effect of over 65% in size;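 as to activity change, negative = inhibition: plate controls were DMSO wells for no effect and tomatine positive control wells for full effect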; settings: SKOV3ip1-GFP adhesion/invasion on 3D omental model, fluorescence; series mostly up to 45.8 µM; activity change, negative = inhibition: at the top concentration
Method in brief: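 Adhesion/invasion was scored as fixed GFP-labeled SKOV3ip1 cell counts (488/509 nm), normalized to DMSO and tomatine controls. Cancer cells in serum-free medium, with four compound doses (0.36-46 umol/L), sat 2 hr at RT then 16 hr at 37 C on a 48 hr fibroblast/mesothelial/ECM culture.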

Activity change, negative = inhibition, inactive:
COC(=O)c1ccc(NC(=O)C(=O)NCCc2sc(-c3cccc(F)c3)nc2C)cc1 5.92%, COc1ccc(-c2cc3nccn3c(Nc3ncccc3C(N)=O)n2)cc1OC 41.9%, Cc1ccc(-c2c(C)n3c4c(=O)n(C)c(=O)n(C)c4nc3n2-c2cccc(O)c2)cc1 -4.95%, CC1CCN(S(=O)(=O)c2cc3c4c(c2)CC(=O)N4CCC3)CC1 -3.4%, Cc1cc(C)cc(NC(=O)CSc2oc(-c3cccs3)nc2S(=O)(=O)c2ccccc2)c1 -1.82%, COc1ccc(S(=O)(=O)NCC(c2ccco2)N2CCOCC2)cc1 (centres undefined) 9.6%, COc1cccc(OCc2nc3ccccc3n2CCOc2ccccc2C)c1 -22.1%, CCCCOc1ccc(CNC(=O)c2cnc3sc(N4CCOCC4)nn3c2=O)cc1 3.39%, O=C(C1CC1)N1CCN(c2nc3ccc(F)cc3s2)CC1 -0.256%, Cc1ccc(C(=O)NCC(c2cccnc2)N2CCc3ccccc32)cc1C (centres undefined) -0.645%, O=[N+]([O-])c1cn2c(n1)OC[C@@H](OCc1ccc(OC(F)(F)F)cc1)C2 1.8%, Cc1ccc(C)c(Nc2nn3c(=O)c4ccc(C(=O)NC5CCCCC5)cc4nc3s2)c1 -2.15%, Cn1nnc2c(C(N)=O)ncn2c1=O 2.91%, O=C(CCn1ccc2cc(S(=O)(=O)N3CCCC3)ccc21)NCc1cccc(Br)c1 -6.18%, CCOC(=O)C(C)Oc1cccc2c(=O)n(CC(=O)Nc3ccc4c(c3)OCCO4)ccc12 (centres undefined) -13.6%, Cc1c(C)n(Cc2ccccc2)c2ccc(C(=O)NCc3ccco3)cc12 -5.05%, CCC1CN(C(=O)Nc2cc(C)cc(C)c2)c2ccccc2O1 (centres undefined) -6.86%, Cc1cc(NC(=O)c2cc(-c3ccc(Cl)cc3)on2)nn1Cc1ccc(Cl)cc1 -9.01%, Cc1cccc(Cc2c(C)nc3nc(SCc4ccccc4C)nn3c2C)c1 2.38%, CC(=O)c1ccc(NC(=O)CCc2c(C)nc3cc(-c4ccc(Cl)cc4)nn3c2C)cc1 -13.5%, COc1cccc(-n2c(SCc3ccccc3C)nc3c([nH]c4ccccc43)c2=O)c1 -8%, Cc1ccc(CNC(=O)CN2C(=O)C3CCCCN3c3ccc(C(=O)N4CCCC4)cc32)cc1 (centres undefined) 2.5%, O=C(NCc1ccccc1Cl)c1ccc2c(O)c(S(=O)(=O)c3ccccc3)c(=O)[nH]c2c1 1.01%, COc1cccc(NC(=O)C2CCN(C(=O)N3CC(C)Oc4ccccc43)CC2)c1 (centres undefined) 2.97%, Cc1cc(C)cc(OCC(=O)NCC2(N(C)C)CCCCC2)c1 12.5%, CCOc1ccc(NC(=O)Cn2nnc(C(=O)Nc3ccc(OCC)cc3)c2N)cc1 -15.9%, O=C(COc1ccccc1-c1nc(-c2ccccc2)no1)Nc1ccccc1[N+](=O)[O-] -1.24%, Cc1ccc(S(=O)(=O)N2CCC(c3ccncc3)CC2)c(C)c1 -20.8%, CCCc1cc(=O)n2[nH]c(NCc3ccccc3OC)nc2n1 -5.37%, CCOC(=O)c1ccc(NC(=O)C(Cc2ccccc2)NS(=O)(=O)c2ccc(Br)s2)cc1 (centres undefined) -10.5%, Cc1cc(C)cc(Nc2sc(C(=O)c3ccccc3)c(N)c2S(=O)(=O)c2ccccc2)c1 16.1%, CCOC(=O)c1c(C)oc2nc(C)nc(NCc3ccccc3OCC)c12 -3.57%, COc1cc(OC)c(NS(=O)(=O)c2ccc3c(c2)NC(=O)CCS3)cc1Cl 6.26%, CC(=O)Nc1ccc(C2Nc3c(C)cc(C)cc3-c3cc(C)nn32)cc1 (centres undefined) 0.703%, O=C(NCc1ccccc1Cl)C1CCCN(c2ncnc3onc(-c4ccc(F)cc4)c23)C1 (centres undefined) -12.8%, O=C(NCC(c1ccco1)S(=O)(=O)c1cccs1)c1ccc(C(F)(F)F)cc1 (centres undefined) 2.5%, CN(C)c1ccc(CNS(=O)(=O)c2csc(C(N)=O)c2)cc1 16.3%, Clc1ccc(-c2noc3ncnc(N4CCCCC4)c23)cc1 -2.63%, COc1ccc(C)cc1NC(=O)c1cc(S(=O)(=O)NCCC2=CCCCC2)ccc1F 0.35%, Cc1cc(C(C)(C)C)cc(C)c1CC1=NCCN1 6.54%, Cc1ccccc1NC(=O)CSc1nc2ccc(NC(=O)c3ccco3)cc2s1 -7.11%, CCCSc1nc2c(c(=O)[nH]1)C(c1ccc(O)c(OCC)c1)CC(=O)N2 (centres undefined) -23.4%, Cn1c(=O)c2c(nc(NCc3ccccc3)n2Cc2ccc(Cl)c(Cl)c2)n(C)c1=O -3.03%, CC(C)(CO)[C@@H](O)C(=O)NCCC(=O)O -4.68%, COc1ccc(N2CC(C(=O)Nc3ccccc3-c3nc(-c4ccc(C)cc4)no3)CC2=O)cc1 (centres undefined) 9.8%, Cc1ccccc1CSCc1ccc(C(=O)NCCc2ccccc2)o1 -8%, COc1cccc(NC(=O)c2oc3ccc(S(=O)(=O)N4CCC5(CC4)OCCO5)cc3c2C)c1 -2.8%, CCOc1ccc(C(CC(=O)Nc2ccc(C(=O)OC)cc2)N2Cc3ccccc3C2=O)cc1OC (centres undefined) -3.23%, COc1ccccc1NC(=O)CSc1nc(-c2cccc(Cl)c2)nc2c1Cc1c(CO)cnc(C)c1O2 3.02%, Oc1c(C(c2ccc(Cl)cc2Cl)N2CCCC2)sc2nc(-c3ccco3)nn12 (centres undefined) -9.84%, CCc1ccc(C(=O)c2cn(Cc3ccccc3)c3cc(OC)c(OC)cc3c2=O)cc1 1.51%, CCc1ccc(-n2nc(C)c3c(C)cc(=O)n(CC(=O)N(CC)Cc4ccccc4)c32)cc1 7.64%, CCCCOC(=O)c1ccc(Nc2nc3ccc(C)cc3n3cnnc23)cc1 -1.31%, CCc1ccccc1NC(=O)COC(=O)c1cn(CC)c2nc(C)ccc2c1=O 7.42%, CCCOc1ccc(Cn2c(=O)sc3ccccc32)cc1 -1.1%, CCc1ccc(OC(=O)c2sc3ncn(Cc4cccc(F)c4)c(=O)c3c2C)cc1 30.8%, O=P(O)(O)C(O)(Cn1ccnc1)P(=O)(O)O 12.9% [at 23.2 µM], COc1ccccc1NC(=O)c1c(NC(=O)c2cccs2)sc2c1CCC(C(C)(C)C)C2 (centres undefined) 11.3%, Cc1cccc(N2CCN(C(=O)c3ccc4c(c3)N(Cc3cccc(Cl)c3)C(=O)c3ccccc3S4=O)CC2)c1C (centres undefined) -6.9%, Cc1ccc(-c2nc(SCC(=O)Nc3cc(C)on3)c3c(=O)n(C)c(=O)n(C)c3n2)cc1 -2.88%, CC(C)Oc1ccc(CNC(=O)c2cnc3sc(N4CCCCCC4)nn3c2=O)cc1 12.6%, COc1ccc2c3n(c(=NC(=O)c4cccnc4)nc2c1OC)CCN3 -8.44%, C[C@]12CCC3c4ccc(O)cc4CCC3C1CCC2=O (some centres undefined) -6.54%, Cc1ccc(N2CCN(C(=O)Nc3cn(CC(C)C)c(=O)c4ccccc34)CC2)c(C)c1 -4.3%, O=C(NCc1ccc(F)cc1Cl)c1ccc(CSCc2ccccc2Cl)o1 -8.15%, Cc1ccc(NC(=O)c2cc(-c3cccs3)nc3ccccc23)c(C)c1 1.88%, CCn1c(C(=O)NCc2ccccc2)cc2sc(Cl)cc21 2.85%, COc1ccccc1/C=C(\C#N)C(=O)NCC1CCCO1 (centres undefined) -7.99%

outcome, inactive:
COc1ccc(NC(=O)CSc2nc3cc(OC)c(OC)cc3c3nc(-c4ccccc4)nn23)cc1Cl, Fc1ccc(-c2cc(-c3ccccc3)c3c(n2)-c2cc(F)ccc2OC3)cc1, CN(C)S(=O)(=O)c1ccc2c(c1)nnn2CCNC(=O)Nc1ccc(Br)cc1, Cn1c(=O)c2c(nc(NCc3ccccc3)n2Cc2ccccc2Cl)n(C)c1=O, Cc1ccc(-c2nc3ncccc3o2)cc1NC(=O)c1cccc(OCC(C)C)c1, Cc1cccc(CN2CCc3nc(N4CCN(c5ccccn5)CC4)ncc3C2)c1, CCc1ccc(NC(=O)Cn2c(=O)n(CCC(=O)NCc3ccc4c(c3)OCO4)c(=O)c3ccccc32)cc1, COc1ccc(Cl)cc1C(=O)Nc1ccc(-c2nnc3n2CCCCC3)cc1, COc1cccc(Cn2c(=O)n(-c3ccccc3C)c(=O)c3c2c2cc(C)ccc2n3C)c1, Cc1ccc(C)c(N2CCN(c3cc(C)nc4c(-c5ccc(Cl)cc5)c(C)nn34)CC2)c1, CCOC(=O)C1=C(CS(=O)(=O)c2ccc(F)cc2)NC(=O)NC1c1ccc(OCC)c(OC)c1 (centres undefined), CCc1nn(CC(=O)NC(C)c2ccccc2)c(=O)c2cc3sccc3n12 (centres undefined), CC(C)CCNC(=O)[C@@H](c1ccccc1)N1Cc2ccccc2C1=O, Cc1ccc(S(=O)(=O)NCCSc2nnnn2-c2ccc(Cl)c(C(=O)O)c2)cc1, CCCc1nc2ccccc2n2c(-c3cccc(C)c3)c3c(=O)n(C)c(=O)n(C)c3c12, CCn1cc2nc(SCc3ccccc3)n(Cc3ccc(C)cc3)c(=O)c2n1, COc1cccc(NC(=O)Nc2cc(-c3cn4cccnc4n3)ccc2OC)c1, CCOc1cc(Cl)c(S(=O)(=O)n2cc(C)nc2CC)cc1Cl, COc1ccc(C(=O)NCCc2nc3ccccc3[nH]2)cc1, CC(C)(C)c1ccc(OCc2cc(=O)n3c4c(sc3n2)CCCC4)cc1, CCOc1ccc(CCNC(=O)CCSCc2cccc(Cl)c2)cc1OCC, Cc1ccc(CCNC(=O)C2CCCN(S(=O)(=O)c3ccc4c(c3)oc(=O)n4C)C2)cc1 (centres undefined), O=C(COc1ccc(F)cc1)OCc1cc(=O)n2nc(C3CC3)sc2n1, O=C(Nc1cc(Cl)ccc1O)c1cc2nc(-c3ccc4c(c3)OCO4)cc(C(F)(F)F)n2n1, CN(C)c1ccc(NC(=O)C2(c3cccs3)CCOCC2)cc1, O=C(CSCc1ccc(F)cc1)N1CCc2c([nH]c3ccccc23)C1c1ccccc1 (centres undefined), CCCCCNc1nc2c(-c3ccccc3)nnn2c2ccccc12, O=C(CC(=O)Nc1ccccc1F)Nc1ccc2nc3n(c(=O)c2c1)CCCCC3, CC(C)CCn1c(=O)c2sccc2n2c(CCCC(=O)Nc3ccc(F)c(Cl)c3)nnc12, COc1cccc(CNC(=O)c2ccc(CN3CC(=O)N4CCCCC4C3=O)cc2)c1 (centres undefined), COC(=O)c1cc2oc3ccccc3c2n1CC(=O)Nc1ccc(C)cc1Cl
